# Source: the supplement of paper PMC11417369
# ± gives the standard deviation of the averaged measurements. Some of the results follow.
# Test system: PfAP2-EXP AP2 domain (GST-tagged)
# Test: gcPBM binding intensity (ln(normalized median fluorescence intensity)); higher = stronger DNA binding
# Summary of the method: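 GST-tagged P. falciparum DNA-binding domains produced in E. coli were incubated for 1 h on an Agilent 4 × 180k array of primer-extended double-stranded 36-bp intergenic genomic probes with negative controls. Binding intensity is the highest Masliner-normalised natural-log median intensity across replicate spots of either probe orientation, with bound protein detected by Alexa488 anti-GST antibody at 488 nm.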
row,Sequence,gcPBM binding intensity (ln)
1,AAAATCTAGGTATTTATACACACTAAAATAATATAC [CACACA_site623],8.52 ± 0.3
2,TTTAAATATAATTGGAGTACTTATAATATATATATA [XGTACX_site7247],9.46 ± 0.12
3,ATTACACATATAGTAGTGCAATAACTCCAAAAAAAA,8.88 ± 0.22
4,AATATGTAATAGTGTACACATATATCTGTATTTATG [CACACA_site4252],8.61 ± 0.3
5,ATGTTATTAAAAAAGGGTACACATCTTTTATGTTAA [XGTACX_site812],8.68 ± 0.42
6,TATATATATATATGGGGTACAAATGGTCAGTATTAT [XGTACX_site1223],10.2 ± 0.21
7,GAAAATATAAAAAAAAGTACATTTTCTCTAAATATA [XGTACX_site2441],8.46 ± 0.36
8,AAAAAGGGTATTATTACACACACGTAAATATTAAGA [CACACA_site4233],8.64 ± 0.39
9,CTATATAATATGAGCACACATAAGATTTGGTGTTAT [CACACA_site744],8.44 ± 0.36
10,AAAAAAAAATTATATACACACATATAAATATATATA [CACACA_site1197],8.09 ± 0.014
11,CCTATTTATTTATACACACACATATATAAATAAATA [CACACA_site7417],8.63 ± 0.26
12,AAAACAAATAAGTAAACACACATATAAAATCTATAT [CACACA_site7262],8.58 ± 0.4
13,TTATGTAAATGCTTATGTACTTATTACAATATTTTT [XGTACX_site4057],8.5 ± 0.41
14,TAAGAATTGAAAAAATGTACACAATATAAAATTGAA [XGTACX_site698],8.42 ± 0.42
15,AAAAAGAATAAATAAATAAATAAATATATATATATA [GTGCAC_negctrl_site584],10.1 ± 0.14
16,AAAAAGAAAAAAAAATGTACATAAAGTCTAATGATA [XGTACX_site4781],8.85 ± 0.73
17,TTTATTACTATGTAAACACACATGCAATATATGTTA [CACACA_site1114],8.54 ± 0.34
18,ATATTATATAAATACACACACACATGCATGCACATA [CACACA_site4236],10.04 ± 0.064
19,ATAATGTAGAACTAGAGTACATAAAAAAATAAACAT [XGTACX_site5205],9.06 ± 0.47
20,GCTACACAATTTTTTAGTACACACATATAAATATAT [XGTACX_site3131],8.85 ± 0.24
21,TTTTTTTTTTTTTTTTTTTGTCTTATATATTACGGA [CACACA_negctrl_site322],7.87 ± 0.44
22,TATATATTATCAAGTGGACACACGAAAAAAAGGAAA [CACACA_site3741],9.05 ± 0.47
23,TAAAGATTGTTCAGTGCATGTTGGCCTGTAAATGGA [TGCATGCA_site315],8.68 ± 0.28

row,Sequence,gcPBM binding intensity (ln)
1,TTTTTCATATTATACTTTTATATACATATATAAAAA [XGTACX_negctrl_site281],8.55 ± 0.31
2,GTAATTTTGAGATGATGTACATATTTTTTCCTTGTC [XGTACX_site4103],8.78 ± 0.47
3,AAAAGAAACTTATTTACGCACACTTTATTGCATGTT [CACACA_site3887],8.77 ± 0.32
4,GATAAATCATATATAACACACATATGAATATTACAA [CACACA_site1321],8.29 ± 0.45
5,TAAGATATATTTTTTTGTACACATAATAAAATAATA [XGTACX_site8938],8.22 ± 0.31
6,AGTGTTTTTTATAAAGTGCAATATAAAAACAAAATG,9.05 ± 0.43
7,ATGTTATATATGTATTGTACGTATTTTGTATATTAT [XGTACX_site6607],8.99 ± 0.34
8,AATTTTTTTTTATTGTGTACTTATTTTTTTATATTT [XGTACX_site917],8.68 ± 0.38
9,AAGAATAAAGAATGGTGTACATGCATATAAAATATT [XGTACX_site5707],9.16 ± 0.28
10,TTTTATTTCATTTGTTGTACTTTCAAAATATTATTA [XGTACX_site2192],8.89 ± 0.47
11,CAACATATGCATATGTGTACATATTTTATTTTCAAC [XGTACX_site2237],8.43 ± 0.4
12,ATATACTCATTAATAACACACAATATGATAACAAAT [CACACA_site5913],8.84 ± 0.37
13,ACATACATATGTAAATGTACAAAATATCCATAGATT [XGTACX_site2782],8.62 ± 0.52
14,AATATATTTCATTTTTGTACACACAACGTTGGAGGG [XGTACX_site6461],9.45 ± 0.57
15,CGAACAAACAAATAAACACACAAAAAAAAATATATA [CACACA_site1825],8.65 ± 0.79
16,ATACTTATGATAAATACACACTTGAAATTAAGGATT [CACACA_site4772],8.45 ± 0.47
17,ATAGAAGGCAACTTGGTGCACAAAAAAAAAAATAAT,9.43 ± 0.11
18,AATATAAAAAAAGAGGAGGGATGGTATACTTGTGGT [CACACA_negctrl_site986],8.9 ± 0.51
19,AAAAAAAATACATACACACACACACCCACATATATA [CACACA_site3561],8.75 ± 0.65
20,AATGTGAAAAAAAAAAGTACAGACCTAATCAAAAAA [XGTACX_site2486],8.67 ± 0.28
21,TTTTTTAAAAGATATATAATATGTATGAATATTCAA [XGTACX_negctrl_site380],8.17 ± 0.47
22,TTAAAGCTGACATATACACACATACATAAATTCATA [CACACA_site5377],8.6 ± 0.39
23,TATACATATATTATATGTACATATATATATAATATA [XGTACX_site2942],8.29 ± 0.28

row,Sequence,gcPBM binding intensity (ln)
1,ATATATATATAATAAACACACAAATAGATATAACAT [CACACA_site3715],9.5 ± 0.18
2,GGACAAGTTTTTTACATAAATAAAAAAAATAAAAAA [XGTACX_negctrl_site125],8.44 ± 0.42
3,CCCCCCCACAGACACACACACATACATACCACATAT [CACACA_site2306],10.3 ± 0.014
4,ATATTATAATTGAAGGTGCAAAATGTAATATAGATA [GTGCAC_site9661],9.41 ± 0.028
5,ATTCATTTTTTGGGGGGTACACCCTTTTAAACATTT [XGTACX_site4797],10.3 ± 0.48
6,ATTATTATTTAAAAAAGTACATTGAAGTTCATAATA [XGTACX_site3575],8.44 ± 0.3
7,TGAAATGATATATAAACACACATATATATATATATA [CACACA_site3511],10 ± 0.36
8,ATTTTTAATGTGATCACACATAAATATTATATATAT [CACACA_site5641],8.48 ± 0.29
9,GTATAAAAAAATATATGTACTTATTTACATATATAT [XGTACX_site4744],8.24 ± 0.32
10,CTGGAGTTAAAAATGTGTACCTAAAAAATTTTGTTC [XGTACX_site5554],8.52 ± 0.35
11,ATTATTATATATAAAACACACAATTTTGTTTTCACA [CACACA_site3965],8.29 ± 0.24
12,ACTATTTAAATGCAAAGTACTTTGATAATAAACAAT [XGTACX_site2608],8.85 ± 0.44
13,TAATATAACAAAAAAATAAAATAAAATAAAAAATAA [CACACA_negctrl_site109],8.4 ± 0.41
14,ATATAATAATATTAAAGTACATGCATATATATTTAT [XGTACX_site7422],8.71 ± 0.31
15,ATTTTTTAAAAAAACATACACACAAAAAAAAAAAAA [CACACA_site3936],8.38 ± 0.56
16,CATAATATCTCTTTGTGTACATATAGTTATTATTAT [XGTACX_site7688],8.69 ± 0.37
17,TATAAACATAAATATACACACAAACATATAGGTATT [CACACA_site6690],8.57 ± 0.39
18,CCCCTTAATTTATTTTGTACATATAATTTTTTTTTT [XGTACX_site3270],8.6 ± 0.42
19,ATTAATCAATATAGGCGTACAAAAAAAATAAATTAT [XGTACX_site1513],8.94 ± 0.54
20,AAAAAAAAAAAAAAAAAAAAAAATATATATATATTT [GTGCAC_negctrl_site502],8.99 ± 0.11
21,CTTGTATATAAACACACACACACTTTCTTTTTTTAA [CACACA_site8602],8.6 ± 0.41
22,ACAAAAATAAGCAAATGTACATATGTATAATATATT [XGTACX_site2492],8.71 ± 0.5
23,GTATTTTTAAATGACACACACATATATAAATATGTA [CACACA_site6880],8.38 ± 0.31

row,Sequence,gcPBM binding intensity (ln)
1,TCTTATTTTATAAATATAAATATATATATATATATA [GTGCAC_negctrl_site479],10.1 ± 0.4
2,ATATATTTTAAAGAAAGTACCCACCGTTTGAAGTCA [XGTACX_site2273],8.73 ± 0.41
3,ATTAATATATAACGTGCACACACACCGTTACGTATG [CACACA_site8543],9.12 ± 0.042
4,TGTTATATATATTGACTTAATAAATAAATAAATATA [GTGCAC_negctrl_site590],7.95 ± 0.43
5,ATATATTTTATATGTGTGCACTATATATATATATAT,10.3 ± 0.18
6,TATTTTATAATTTACCGTACATTAATTGTATTATTA [XGTACX_site5722],8.55 ± 0.35
7,TTACAAAACACTTATACACACATATAAATATAAATA [CACACA_site7307],8.48 ± 0.42
8,CTCCTCATATAATTTTGTACATAAAAAATTACCATT [XGTACX_site3879],8.72 ± 0.42
9,ATATTATGTGAAGAACGTACAAATTTTTACACTATA [XGTACX_site1485],8.69 ± 0.43
10,TTCTTTTCAGAAGGAAAGAATTATAACATATCATAA [XGTACX_negctrl_site548],8.23 ± 0.45
11,TATTTTGCTCATCCATGTACACATAGATATATTTTA [XGTACX_site8244],8.85 ± 0.44
12,TTTCTAAATGTTTATATATATATATATATATAAATA [GTGCAC_negctrl_site397],8.47 ± 0.11
13,TAAAAGAAATAAGGTGCACACATATACATATATATA [CACACA_site8037],9.16 ± 0.085
14,CTATAAATAACAGAAAGTACATATACATGGATATAT [XGTACX_site3317],8.65 ± 0.38
15,AATATATCAAAAATTGGATAGTTTCTTATAAAAAAT [CACACA_negctrl_site39],8.09 ± 0.44
16,ATACATATATATATTCTACACACTTATAATATAATA [CACACA_site8782],8.71 ± 0.44
17,GTAAAAGTTAAAAAAACATGCAAAATTTAAAAAAAA [TGCATGCA_site637],8.83 ± 0.37
18,ACTATATTTGCCCTTTTAATCAGAACAAAAAAAAAA [CACACA_negctrl_site1051],8.62 ± 0.12
19,ATTATATTCCAAGTTTGTACATATATATAAAAGTAT [XGTACX_site1631],8.54 ± 0.33
20,AGTATAAAAATAAGCACACACACAAATATATATTTA [CACACA_site923],8.86 ± 0.45
